In PubChem BioAssay AID624417 (National Center for Advancing Translational Sciences (NCATS), 2012):
“And” between values parts separate entries of the source, which are not always exact repeats. Equal entries are not always repeated. The whole screen tested about 410,000 compounds, of which about 6,400 (1.6%) were called active. This list was built around the results that the source calls inconclusive (neither active nor inactive); the mix of calls is not that of the screen. Calls come from the whole dose curve; as a rule, active = well fitted inhibition curve with a large enough effect; inconclusive = small, poorly fitted or top-dose-only effect; inactive = no such curve, though single readings can be large or run the other way. Potencies beside an inconclusive call are fits to weak or partial responses and may not hold up.

Molecular target: Glucagon-like peptide 1 receptor (Homo sapiens) (UniProt P43220)
Sequence of UniProt P43220 (P43220 whole entry, looked up): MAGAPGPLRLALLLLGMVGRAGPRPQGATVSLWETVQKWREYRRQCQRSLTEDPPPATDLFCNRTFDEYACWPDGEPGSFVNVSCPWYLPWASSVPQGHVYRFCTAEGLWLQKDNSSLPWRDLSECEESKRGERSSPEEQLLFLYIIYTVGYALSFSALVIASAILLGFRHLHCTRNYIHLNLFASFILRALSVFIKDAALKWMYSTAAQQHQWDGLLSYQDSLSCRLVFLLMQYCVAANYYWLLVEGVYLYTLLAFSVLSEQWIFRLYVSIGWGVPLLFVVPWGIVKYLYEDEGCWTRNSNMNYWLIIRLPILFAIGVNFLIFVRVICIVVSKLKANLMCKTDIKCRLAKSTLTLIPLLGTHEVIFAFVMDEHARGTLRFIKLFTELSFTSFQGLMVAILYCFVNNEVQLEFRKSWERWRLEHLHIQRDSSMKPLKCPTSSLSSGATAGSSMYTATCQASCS
Experiment: qHTS of GLP-1 Receptor Inverse Agonists (Inhibition Mode); note: nearly all actives have a fitted effect of over 55% in size
Details: HEK293 GLP-1R CRE-luciferase, luminescence, 24 h, GLP-1R form is constitutively active; activity change, negative = inhibition: at 38.3 µM (top of the series) unless noted
Method in brief: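 HEK293 cells stably co-expressing constitutively active GLP-1R and a cAMP-responsive luciferase reporter were seeded in DMEM with 10% Nu serum, given compounds after 12 h, and incubated 24 h at 37 deg C. Luminescence was then read.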
% is set by controls: 0 for no effect and ±100 for the full control effect; potency is the fitted concentration of half-maximal effect; tags give direction and shape of the fitted curve.

Potency, active:
CCC(C)(C)c1ccc(Oc2ccc(N)cc2)cc1 2.82 µM, CC1CCCC(C)N1C(=O)CSc1nnc(C2CCCCC2)o1 (centres undefined) 3.16 µM

Potency, inconclusive:
Cc1ccc(F)cc1C(=O)N1CCCC(c2cc(C(=O)Nc3ccccc3)no2)C1 (centres undefined) 12.6 µM [inhibitor, single point], CC1=CC(C)(C)N2C(=O)C(=O)c3cc(OC(=O)c4ccco4)cc1c32 10 µM [inhibitor, partial curve, poor fit], O=C(Nc1ccccc1N1CCCC1)c1ccc(F)c(S(=O)(=O)N2CCOCC2)c1 7.08 µM [inhibitor, partial curve, poor fit], CN(Cc1ccccc1)C(=O)Nc1ccc2c(c1)N(C)C(=O)c1ccccc1S2 3.16 µM [inhibitor, single point], COc1ccc(N(CC(=O)NCc2cccs2)S(=O)(=O)c2cccc(C)c2)cc1 10 µM [inhibitor, single point], Nc1ccc(C(=O)N/N=C/c2cn(Cc3ccccc3F)c3ccccc23)cc1 3.55 µM [inhibitor, partial curve, poor fit], CCc1ccc(NC(=O)CCn2nc(-c3ccccc3OC)c3c(C)cc(C)nc32)cc1 10 µM [inhibitor, partial curve, poor fit], Cc1noc(C)c1COC(=O)[C@H](C)NS(=O)(=O)c1ccc(Cl)c(Cl)c1 31.6 µM [inhibitor, single point], O=C(NCc1ccccc1Cl)c1ccc(CSCc2ccccc2Cl)o1 28.2 µM [inhibitor, single point], CCN(c1ccccc1)P(=O)(Nc1ccccc1)Nc1ccccc1 28.2 µM [inhibitor, single point], COc1ccc(OC)c(NC(=O)Nc2nnc(N3CCCCC3C)s2)c1 (centres undefined) 14.1 µM [inhibitor, single point], Cc1ccc(CSc2nnc(CCNC(=O)OC(C)(C)C)o2)cc1 10 µM [inhibitor, single point] and 15.8 µM [inhibitor, single point], COc1ccc(C(=O)Nc2ccc3ccccc3n2)c(OC)c1OC 5.62 µM [inhibitor, partial curve], Cc1cc(C)n(CCc2nc(-c3ccc(-c4ccccc4)cc3)cs2)n1 8.91 µM [inhibitor, partial curve, poor fit], CC(C)C1C(=O)N(Cc2cn(CCC3OCCO3)nn2)CCS(=O)(=O)N1Cc1ccc(-c2ccccc2Cl)cc1 (centres undefined) 11.2 µM [inhibitor, single point], Cc1ccc(-n2ncc(C(=O)NCc3cccs3)c2C2CCN(C(=O)OC(C)(C)C)CC2)c(C)c1 28.2 µM [inhibitor, single point], CCN1CC2=C(OC(N)=C(C#N)C2c2cccs2)/C(=C\c2cccs2)C1 (centres undefined) 15.8 µM [inhibitor, partial curve, poor fit], Cc1nn2c(NCCN(C)C)c3c(nc2c1-c1ccccc1)CCC3 3.55 µM [inhibitor, partial curve], CCC(=NCc1ccccc1)C1=C(O)C(C(=O)OC)C(C)(C)CC1=O (centres undefined) 8.91 µM [inhibitor, partial curve, poor fit], CCCc1ccc(OCC(O)CN2CCN(c3ccccn3)CC2)cc1 (centres undefined) 14.1 µM [inhibitor, single point], CC(C)(C)c1cc(NC(=O)COC(=O)c2ccccc2)n(-c2ccccc2)n1 10 µM [inhibitor, partial curve], CNCc1c(OCc2ccccc2F)ccc2ccccc12 8.91 µM [inhibitor, partial curve, poor fit], Cc1ccc(S(=O)(=O)NCc2c(Cl)cccc2Oc2ccccc2)cc1 12.6 µM [inhibitor, single point], CN1CCN(S(=O)(=O)c2ccc(SCCOc3ccc(Cl)cc3)nc2)CC1 10 µM [inhibitor, partial curve], Oc1c(Br)cc2oc3c(c2c1CNCc1ccccc1)CCCC3 12.6 µM [inhibitor, single point], CC(C)C(C(=O)Nc1nccs1)c1ccc(Cl)cc1 (centres undefined) 10 µM [inhibitor, partial curve, poor fit], CCCC(CCC)C(=O)Nc1ccc2c(c1)N(C(=O)CCN1CCN(C)CC1)c1ccccc1CC2 28.2 µM [inhibitor, single point], CCN(CCNC(=O)C1CCN(S(=O)(=O)c2cccc3nsnc23)CC1)c1ccccc1 28.2 µM [inhibitor, single point], O=C(NCCc1cccc(Cl)c1)c1ccc(OC2CCN(Cc3ccccn3)CC2)cc1 5.01 µM [inhibitor, partial curve, poor fit], CN(C)Cc1c(OC(=O)c2ccc(N)cc2)ccc2ccccc12 28.2 µM [inhibitor, single point], Cc1ccc(F)cc1NC(=O)c1c(-c2ccccc2)noc1C 11.2 µM [inhibitor, single point], COc1ccc(N2CCN(CC(=O)Nc3ccccc3C(=O)NCc3ccccc3)CC2)cc1 10 µM [inhibitor, partial curve, poor fit], COc1ccc([N+](=O)[O-])cc1NC(=O)CCN1CCN(c2ccccc2)CC1 7.94 µM [inhibitor, partial curve, poor fit], Cc1cc(Br)ccc1NC(=O)c1cnc(N2CCN(c3ccccn3)CC2)c2ccccc12 5.62 µM [inhibitor, partial curve, poor fit], COc1cccc(CCNC(=O)c2ccc(OC)c(OC3CCN(C(C)C)CC3)c2)c1 10 µM [inhibitor, partial curve, poor fit], CCn1c(CNc2ccc(Cl)cc2)nnc1SCc1ccc(Cl)cc1 20 µM [inhibitor, single point], CCN(CC)c1ccc(/C=N\N2CCN(Cc3ccc(C)cc3)CC2)cc1 11.2 µM [inhibitor, single point], COc1ccc(-c2nn(-c3ccccc3)cc2/C=N/O)cc1 12.6 µM [inhibitor, partial curve, poor fit], COc1ccc(CCCc2nnc(SCC(=O)Nc3ccc(C)cc3C)o2)cc1 12.6 µM [inhibitor, single point], CC(=O)NC12CC3CC(C1)CC(C(=O)Nc1nc4ccc(F)cc4s1)(C3)C2 8.91 µM [inhibitor, partial curve, poor fit], CC1(C(=O)Nc2ccc(Cl)cc2)Cc2c(-c3cccc(C(F)(F)F)c3)ccnc2O1 (centres undefined) 10 µM [inhibitor, partial curve, poor fit], Brc1ccc(CSc2nnc(Cc3c[nH]c4ccccc34)o2)cc1 22.4 µM [inhibitor, single point], O=S(=O)(c1ccc2ccccc2c1)N(CC1CO1)c1ccccc1 (centres undefined) 12.6 µM [inhibitor, single point], C=CCN(CC=C)CCOc1cccc(Oc2ccccc2)c1 22.4 µM [inhibitor, single point], O=C(NCC(c1cccnc1)N1CCc2ccccc21)c1cccc(C(F)(F)F)c1 (centres undefined) 3.16 µM [inhibitor, single point], Cc1cc(F)ccc1NCc1ccccc1-c1nnc(-c2ccccc2Cl)o1 28.2 µM [inhibitor, single point], CC(NC(=O)CCSCc1ccccc1F)c1ccccc1 (centres undefined) 28.2 µM [inhibitor, single point], COc1ccc2[nH]c(C(=O)N/N=C/c3ccc(O)cc3O)cc2c1 2.24 µM [inhibitor, full curve, poor fit]

Activity change, negative = inhibition, inconclusive:
CC(NC(=O)CCSCc1ccccc1F)c1ccccc1 (centres undefined) -48.3% [inhibitor]

Activity change, negative = inhibition, inactive:
Cc1ccc(CN(C)C(=O)CCc2nc3sc4c(c3c(=O)[nH]2)CCCC4)o1 -10.7%, O=C(CSc1ccccn1)Nc1ccc2[nH]c(=O)[nH]c2c1 4.87%, COc1ccccc1OC(C)C(=O)Nc1ccc(-c2nc3ccccc3s2)cc1 (centres undefined) 12.9%, COc1ccc(-c2cn3c(C)c(C(=O)Nc4cc(NC(C)=O)ccc4OC)sc3n2)cc1 0%, CC1CC(C)CN(CCCNC(=O)CC2Oc3ccccc3NC2=O)C1 (centres undefined) -10.3%, O=C(O)[C@@H]1Cc2c([nH]c3ccccc23)C2CCC(=O)N21 (some centres undefined) -3.48%, CC(=O)Nc1ccc2nc(NC(=O)COc3ccccc3C)sc2c1 -3.37% [at 0.307 µM], CCCCN(C(=O)CSCC(=O)Nc1ccc(OC)cc1)c1c(N)n(CC(C)C)c(=O)[nH]c1=O 15.4%, Brc1ccccc1-c1nnc(COc2cccc3cccnc23)o1 -3.41%, CCC(=O)Nc1ccc2c(c1)ncn2-c1ccc(OC)cc1 5.6%, CCCNC(=O)C(Cc1ccccc1)NC(=O)Cc1ccccc1 (centres undefined) 21.9%, Cc1ccc(NC(=O)COC(=O)CN2CCSC2=O)cc1F 4.88%, Oc1c(CN2CCOCC2)cc(CN2CCOCC2)c(O)c1O 8.79%
